Laboratory results reported in article PMC4336329 (PLoS ONE, 2015).
The campaign covered roughly 310,000 compounds. About 2,200 (0.71%) showed an effect of 50% or more. The effect is printed as a negative number. The list shows a part of the results.

target: human ether-à-go-go-related gene (hERG) potassium channel (human, UniProt Q12809); assay: primary screen, population patch clamp on CHO cells stably expressing hERG
Sequence (Q12809 whole entry, looked up): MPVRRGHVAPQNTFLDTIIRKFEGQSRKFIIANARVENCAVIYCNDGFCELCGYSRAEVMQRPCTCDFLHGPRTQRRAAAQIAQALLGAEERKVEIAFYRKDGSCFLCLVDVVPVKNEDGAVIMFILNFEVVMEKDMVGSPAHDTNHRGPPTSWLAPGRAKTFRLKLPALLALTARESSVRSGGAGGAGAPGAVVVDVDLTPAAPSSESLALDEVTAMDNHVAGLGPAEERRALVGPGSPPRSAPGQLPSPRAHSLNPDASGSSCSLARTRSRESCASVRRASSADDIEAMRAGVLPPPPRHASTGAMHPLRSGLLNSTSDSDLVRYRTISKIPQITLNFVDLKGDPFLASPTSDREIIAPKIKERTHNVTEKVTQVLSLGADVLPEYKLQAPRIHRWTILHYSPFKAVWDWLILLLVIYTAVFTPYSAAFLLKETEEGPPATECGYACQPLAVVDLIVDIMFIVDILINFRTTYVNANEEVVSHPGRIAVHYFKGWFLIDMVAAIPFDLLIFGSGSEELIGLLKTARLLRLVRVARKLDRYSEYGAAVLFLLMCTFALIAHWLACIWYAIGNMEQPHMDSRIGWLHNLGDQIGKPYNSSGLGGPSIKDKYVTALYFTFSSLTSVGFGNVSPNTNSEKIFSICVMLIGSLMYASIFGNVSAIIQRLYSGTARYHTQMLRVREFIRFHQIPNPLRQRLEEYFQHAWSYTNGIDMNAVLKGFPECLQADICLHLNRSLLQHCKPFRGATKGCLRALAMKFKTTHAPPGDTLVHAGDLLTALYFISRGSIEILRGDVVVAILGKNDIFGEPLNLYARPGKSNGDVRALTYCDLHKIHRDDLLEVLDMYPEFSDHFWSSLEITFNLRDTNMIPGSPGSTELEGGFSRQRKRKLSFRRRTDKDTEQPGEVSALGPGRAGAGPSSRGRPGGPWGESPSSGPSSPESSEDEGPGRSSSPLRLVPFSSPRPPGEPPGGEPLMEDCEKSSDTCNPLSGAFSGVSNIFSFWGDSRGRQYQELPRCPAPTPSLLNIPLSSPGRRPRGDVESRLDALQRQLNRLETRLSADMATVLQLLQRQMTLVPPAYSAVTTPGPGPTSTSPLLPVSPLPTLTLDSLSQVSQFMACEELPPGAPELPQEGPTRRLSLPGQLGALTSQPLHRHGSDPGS

| SMILES | hERG current change (%, negative = inhibition) at 1uM |
| --- | --- |
| CC(/C=C1\N=C(SCc2ccccc2Cl)SC1=O)=C\c1ccccc1 | 11.5% |
| Cc1ccc(C)c(Cn2nc(-c3ccccc3)ccc2=O)c1 | 16.7% |
| COc1cc(/C=N/NC(=O)CCc2n[nH]c(=O)[nH]c2=O)cc(OC)c1OC | 4.79% |
| O=C(Nc1ccc(Cl)cc1)N1CCCN(Cc2ccc(F)cc2)C1 | -22.4% |
| CC(=O)Oc1ccc(-c2cccc(C(=O)NCCO)c2)cc1 | 16.3% |
| CCOc1ccc(N2CC(C(=O)NCc3ccccn3)CC2=O)cc1 (stereo not drawn) | 11.7% |
| N#Cc1nc(Cc2cccc3ccccc23)oc1N1CCOCC1 | -3.96% |
| CS(=O)(=O)c1ccc(C(=O)Nc2ccccc2Cl)cc1 | 5.48% |
| CCOc1cc(C2/C(=C(/O)c3ccc(OC(C)C)cc3)C(=O)C(=O)N2CCCOC)ccc1O (stereo not drawn) | 21.3% |
| O=C(Nc1ccc2c(c1)OCO2)C1COc2ccccc2O1 (stereo not drawn) | 12.8% |
| CCn1c(C(C)NS(=O)(=O)c2ccc(Cl)cc2)n[nH]c1=S (stereo not drawn) | 14.7% |
| COc1ccc(C(=O)N2c3ccccc3CC2C)cc1OC (stereo not drawn) | 11% |
| COc1ccccc1CC(=O)NNS(=O)(=O)c1cccc([N+](=O)[O-])c1 | 13.4% |
| CCc1ccc(CN(C)C(=O)c2ccc3c(=O)n4c(nc3c2)CCC4)cc1 | -2.03% |
| CCOC(=O)Cc1csc(NC(=O)CSc2nccn2C)n1 | 10.3% |
| CCc1ccccc1NC(=S)N(Cc1ccc(C(=O)O)cc1)Cc1ccc(OC)c(OC)c1 | 12.9% |
| COc1ccc(CCNC(=O)Cn2c(=O)n(-c3cc(F)ccc3F)c(=O)c3sccc32)cc1OC | 3.75% |
| O=C(NCCc1ccc(Cl)cc1)C1CC(=O)N(C2CCCC2)C1 (stereo not drawn) | 10.8% |
| Cc1ccc(C)c(NC(=S)N/N=C/C(C)c2ccccc2)c1 (stereo not drawn) | 0.841% |
| Cc1nnc(-c2ccc(N3CCOCC3)c([N+](=O)[O-])c2)o1 | 12% |
| Cc1ccccc1-n1nc2c(c1NC(=O)c1cccc(F)c1)CS(=O)C2 (stereo not drawn) | 9.92% |
| C=CCn1c(C)nnc1SCC(=O)Nc1oc(C)c2c(C)n[nH]c(=O)c12 | 3.06% |

| SMILES | hERG current change (%, negative = inhibition) at 1uM |
| --- | --- |
| Cc1onc(-c2ccccc2)c1C(=O)N/N=C/c1c(F)cccc1Cl | 15.7% |
| CS(=O)(=O)Nc1ccc(C(=O)N2CCCCC2)cc1 | 12.5% |
| COc1ccc(OC)c(S(=O)(=O)NCc2cc(-c3ccccc3)no2)c1 | 11.7% |
| Cc1ccc(/C=C2\SC(=S)N(CCC(=O)NNS(=O)(=O)c3ccccc3)C2=O)cc1 | 11.7% |
| Cc1cccc(-n2c(SCC(=O)N3CCCC3)nnc2-c2ccccn2)c1C | 5.57% |
| O=C(c1sc2cccc(F)c2c1Cl)N1CCN(c2ncccn2)CC1 | -65.4% |
| COC(=O)c1ccccc1NC(=O)CSc1n[nH]c(CC(C)C)n1 | 8.94% |
| COc1ccccc1N1CCN(c2ccc(Cl)nn2)CC1 | 11.8% |
| O=C(COCc1cc(-c2ccco2)on1)NC1CCCCC1 | 5.08% |
| Cc1ccccc1C(=O)N1CCc2ccccc2C1 | 10.1% |
| O=C(Cn1ncc(Cl)c(Cl)c1=O)N1CCN(S(=O)(=O)c2ccc3ccccc3c2)CC1 | -3.91% |
| O=P(Cc1cccc[n+]1[O-])(c1ccccc1)c1ccccc1 | 11.2% |
| CN(CCC#N)S(=O)(=O)c1ccc2[nH]cc(C(=O)NCCc3ccccc3)c(=O)c2c1 | 3.35% |
| C#CCOCCOCCOCCNc1nc(N2CCN(C(=O)CCCCCCCCCCNC(=O)[C@H](CCC(=O)O)n3cc(CCCCCN)nn3)CC2)nc(N2CCN(C(=O)CCCCCCCCCCNC(=O)[C@@H]([C@H](C)O)n3cc(C)nn3)CC2)n1 | 20.8% |
| COc1ccc(C(=O)COC(=O)CCCC(=O)NC2CCCCC2)cc1 | 4.94% |
| Cc1ccccc1NC(=O)N1CCCC1C(=O)NCc1ccccc1 (stereo not drawn) | 14.1% |
| Cc1ccc(N2C(=O)NC(NS(=O)(=O)c3ccccc3)(C(F)(F)F)C2=O)cc1C (stereo not drawn) | 39.2% |
| NS(=O)(=O)c1cccc(NC(=O)COC(=O)CCc2ccccc2)c1 | 10.5% |
| COC(=O)c1ccc(NC(=O)c2snnc2-c2ccccc2)cc1 | 10.7% |
| COc1ccc(COC(=O)c2n[nH]c3ccccc23)cc1F | -0.258% |
| COc1ccc(CCNC(=S)N2CCC(C(=O)c3ccc(F)cc3)CC2)cc1OC | 3.61% |
| CCOC(=O)c1oc2c(c1C)/C(=N/O)CCC2 | 15.2% |

| SMILES | hERG current change (%, negative = inhibition) at 1uM |
| --- | --- |
| Nc1nonc1-n1nnc(C(=O)N/N=C/c2ccccc2Cl)c1COc1ccc(F)cc1 | 6.94% |
| CCN(c1ccccc1)S(=O)(=O)c1ccc(N)c(OC)c1 | 4.28% |
| CCC(Oc1ccc(F)cc1)C(=O)N1CCCCCCC1 (stereo not drawn) | 3.47% |
| COc1ccc(Cn2c(O)c(C=Nc3ccccc3)c3ccccc3c2=O)cc1 | 6.4% |
| Oc1c(Br)cc(Br)cc1C=Nc1ccc2[nH]ncc2c1 | 8.91% |
| Cc1cc(C)n(CCn2nc(C)cc2C)n1 | 4.08% |
| CCCOc1ccc(Cn2c(=O)oc3ccc(C)cc32)cc1 | 12.7% |
| O=C(CN(Cc1ccco1)C(=O)CNS(=O)(=O)c1ccc(Cl)cc1)NCC1CCCO1 (stereo not drawn) | 6.09% |
| CC1CN(CCCCOc2ccc(Cl)c3ccccc23)CC(C)O1.O=C(O)C(=O)O (stereo not drawn) | 21.2% |
| Cc1sc2ncnc(OCC(=O)N3CCN(S(=O)(=O)c4ccccc4)CC3)c2c1C | 7.8% |
| O=C(c1ccc2oc(Cc3ccc(Cl)cc3)nc2c1)N1CC[C@H](O)C1 | 12.1% |
| CCOC(=O)C1CCN(C(=O)CCNC(=O)Cn2ccc3ccccc3c2=O)CC1 | 9.34% |
| C#CCN(CC=C)C(=O)c1ccc2nc(C3CCCCC3)oc2c1 | 7.36% |
| NC(=O)C1c2ccccc2Oc2ccccc21 | 3.54% |
| Cc1nc2scc(-c3ccccc3)c2c(=O)n1N | 3.11% |
| Cc1ccccc1N1CCN(C(=O)c2ccccc2NC(=O)/C=C\C(=O)O)CC1 | 7.08% |
| Cc1c(Cl)cccc1NC(=O)CC(Cc1ccccc1)C(=O)O (stereo not drawn) | 8.44% |
| Cn1c(=O)c2cc(S(=O)(=O)NC(Cc3ccccc3)C(=O)NCC3CCCO3)ccc2n(C)c1=O (stereo not drawn) | 3% |
| Cc1cc(C)c2c(N)c(C(=O)N3CCc4ccccc4C3)sc2n1 | 12.3% |
| Cc1cc(=O)cc(C)n1-c1ccccc1Br | 13.2% |
| COc1cccc(CNC(=O)COC(=O)CN(C)S(=O)(=O)c2ccc(NC(C)=O)cc2)c1 | 8.75% |
| CC(C)Cn1c(N2CCN(C(=O)c3cccs3)CC2)nc2ccccc21 | -74.7% |

| SMILES | hERG current change (%, negative = inhibition) at 1uM |
| --- | --- |
| O=C(NNC(=S)Nc1ccc(Br)cc1)c1ccccc1Br | 2.51% |
| O=C(CSc1nnc(CNC(=O)c2cccs2)o1)Nc1cccc(C(F)(F)F)c1 | 6.27% |
| COCCn1c(=NC(=O)CSC(C)=O)sc2cc(F)ccc21 | 6.85% |
| CCC(=O)Nc1ccc(NC(=O)c2cc3ccccc3o2)c(OC)c1 | -0.329% |
| COc1ccc(/C=C/C(=O)C2CC2)cc1Cn1nc(C)c([N+](=O)[O-])c1C | -9.32% |
| Cc1nnc(SCC(=O)N2CCN(c3ccccc3)CC2)n1-c1ccccc1 | 4.55% |
| O=C1C=CN(C(=O)Oc2ccccc2)CC1 | 3.33% |
| Cc1ccc(O)c(NC(=O)Cc2ccc3ccccc3c2)c1 | 11.6% |
| CC(=O)N1C(=O)NC(c2ccccc2)=C([N+](=O)[O-])C1c1ccccc1 (stereo not drawn) | 7.06% |
| CCS(=O)(=O)c1nc(S(=O)(=O)c2ccc(C)cc2)c(N2CCN(CCO)CC2)s1 | 16.9% |
| CCOC(=O)c1ccc2nc(NC(NC(C)=O)(C(=O)OC)C(F)(F)F)sc2c1 (stereo not drawn) | 14% |
| CC(C)c1ccc(N(C(=O)c2csnn2)C(C(=O)NC2CCCC2)c2ccncc2)cc1 (stereo not drawn) | 4.61% |
| O=C(O)c1ccc([N+](=O)[O-])c(CS(=O)(=O)c2ccc(Cl)cc2)c1 | 4.34% |
| COc1ccc(C2(C)NC(=O)N(CC(=O)Nc3ccc(S(=O)(=O)N4CCCC4)cc3)C2=O)cc1 (stereo not drawn) | 0.414% |
| COc1ccc(NC(=S)N2CCN(C(=O)C3CCCO3)CC2)c(OC)c1 (stereo not drawn) | 12.9% |
| COc1ccc(-c2c(C)n([O-])c3c([n+]2=O)CCCC3)c(OC)c1 | 11.4% |
| O=C(O)c1ccc(Cl)c(S(=O)(=O)NCC2CCCO2)c1 (stereo not drawn) | 14.8% |
| CCCCCn1nc(-c2ccccc2)c2nc3ccccc3nc21 | 13.8% |
| O=C1OCCC1Sc1nnc(-c2ccc3c(c2)OCO3)n1-c1ccccc1 (stereo not drawn) | 4.75% |
| CCN(C(=O)CCCCC(=O)N(CC)c1ccccc1)c1ccccc1 | 11.1% |
| COc1ccc(OCCC(=O)NCC23CC4CC(CC(C4)C2)C3)cc1 | 7.39% |
